# Some of the results follow.
# B1: Surfactant Protein D (rat); Neck + Carbohydrate Recognition Domain (NCRD) (Rattus norvegicus) (protein)
# chain: MLLFLLSALVLLTQPLGYLEAEMKTYSHRTMPSACTLVMCSSVESGLPGRDGRDGREGPRGEKGDPGLPGAAGQAGMPGQAGPVGPKGDNGSVGEPGPKGDTGPSGPPGPPGVPGPAGREGALGKQGNIGPQGKPGPKGEAGPKGEVGAPGMQGSAGARGAGPKGERGVPGERGVPGNTGAAGSAGAMGPQGSPGARGPPGLKGDKGIPGDKGAKGESGLPDVASLRQQVEALQGQVQHLQAAFSQYKKVELFPNGQSVGEKIFKTAGFVKPFTEAQLLCTQAGGQLASPRSAAENAALQQLVVAKNEAAFLSMTDSKTEGKFTYPTGESLVYSNWAPGEPNDDGGSEDCVEIFTNGKWNDRACGEKRLVVCEF
# What was measured:
# Experiment in all cases: glycan array binding signal (z-score within array); higher = stronger binding
# Settings in all cases: glycan notation: IUPAC condensed, linker removed
# GalNAc(b1-3)GalNAc = biological target: GalNAc(b1-3)GalNAc
# In short: (§1)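 The binding signal is a Z-score computed within each array. Data were drawn from 3228 arrays in the Consortium for Functional Glycomics database, restricted to those with a known protein sequence. Scores were averaged over arrays of the same protein sequence at different concentrations or buffers, and over linkers, and negative values can be taken as non-binding.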
# GalNAc(b1-4)GlcNAc = biological target: GalNAc(b1-4)GlcNAc
# In short: as §1
# Glc(a1-4)Glc = biological target: Glc(a1-4)Glc
# In short: as §1
# Glc(a1-6)Glc(a1-6)Glc = biological target: Glc(a1-6)Glc(a1-6)Glc
# In short: as §1
# Glc(b1-4)Glc = biological target: Glc(b1-4)Glc
# In short: as §1
# Glc(b1-6)Glc = biological target: Glc(b1-6)Glc
# In short: as §1
# GlcA(b1-3)Gal = biological target: GlcA(b1-3)Gal
# In short: as §1
# GlcA(b1-3)GlcNAc = biological target: GlcA(b1-3)GlcNAc
# In short: as §1
# GlcA(b1-6)Gal = biological target: GlcA(b1-6)Gal
# In short: as §1
# [1] = biological target: GlcNAc(a1-3)Gal(b1-4)GlcNAc
# In short: as §1
# [2] = biological target: GlcNAc(a1-6)Gal(b1-4)GlcNAc
# In short: as §1
# [3] = biological target: GlcNAc(b1-2)Gal(b1-3)GalNAc
# In short: as §1
# [4] = biological target: GlcNAc(b1-2)Man(a1-3)[GlcNAc(b1-2)Man(a1-6)]Man(b1-4)GlcNAc(b1-4)GlcNAc
# In short: as §1
# GlcNAc(b1-3)Gal = biological target: GlcNAc(b1-3)Gal
# In short: as §1
# [5] = biological target: GlcNAc(b1-3)Gal(b1-3)GalNAc
# In short: as §1
# GlcNAc(b1-3)Gal(b1-4)Glc = biological target: GlcNAc(b1-3)Gal(b1-4)Glc
# In short: as §1
# [6] = biological target: GlcNAc(b1-3)Gal(b1-4)GlcNAc
# In short: as §1
# [7] = biological target: GlcNAc(b1-3)Gal(b1-4)GlcNAc(b1-3)Gal(b1-4)GlcNAc
# In short: as §1
# GlcNAc(b1-3)GalNAc = biological target: GlcNAc(b1-3)GalNAc
# In short: as §1
# GlcNAc(b1-3)Man = biological target: GlcNAc(b1-3)Man
# In short: as §1
# [8] = biological target: GlcNAc(b1-3)[GlcNAc(b1-4)][GlcNAc(b1-6)]GlcNAc
# In short: as §1
# [9] = biological target: GlcNAc(b1-3)[GlcNAc(b1-6)]Gal(b1-4)GlcNAc
# In short: as §1
# [10] = biological target: GlcNAc(b1-3)[GlcNAc(b1-6)]GalNAc
# In short: as §1
# [11] = biological target: GlcNAc(b1-4)Gal(b1-4)GlcNAc
# In short: as §1
# GlcNAc(b1-4)GlcNAc = biological target: GlcNAc(b1-4)GlcNAc
# In short: as §1
# [12] = biological target: GlcNAc(b1-4)GlcNAc(b1-4)GlcNAc
# In short: as §1
# [13] = biological target: GlcNAc(b1-4)GlcNAc(b1-4)GlcNAc(b1-4)GlcNAc(b1-4)GlcNAc
# In short: as §1
# [14] = biological target: GlcNAc(b1-4)GlcNAc(b1-4)GlcNAc(b1-4)GlcNAc(b1-4)GlcNAc(b1-4)GlcNAc
# In short: as §1
# [15] = biological target: GlcNAc(b1-4)[GlcNAc(b1-6)]GalNAc
# In short: as §1
# [16] = biological target: GlcNAc(b1-6)Gal(b1-4)GlcNAc
# In short: as §1
# GlcNAc(b1-6)GalNAc = biological target: GlcNAc(b1-6)GalNAc
# In short: as §1
# GlcNAc3Prop(b1-4)GlcNAc = biological target: GlcNAc3Prop(b1-4)GlcNAc
# In short: as §1
# Kdn(a2-3)Gal(b1-3)GlcNAc = biological target: Kdn(a2-3)Gal(b1-3)GlcNAc
# In short: as §1
# Kdn(a2-3)Gal(b1-4)GlcNAc = biological target: Kdn(a2-3)Gal(b1-4)GlcNAc
# In short: as §1
# [17] = biological target: Man(a1-2)Man(a1-2)Man(a1-3)Man
# In short: as §1
# [18] = biological target: Man(a1-2)Man(a1-2)Man(a1-6)[Man(a1-3)]Man
# In short: as §1
# Man(a1-2)Man(a1-3)Man = biological target: Man(a1-2)Man(a1-3)Man
# In short: as §1
# [19] = biological target: Man(a1-2)Man(a1-3)[Man(a1-2)Man(a1-6)]Man
# In short: as §1
# [20] = biological target: Man(a1-2)Man(a1-3)[Man(a1-2)Man(a1-6)]Man(a1-6)[Man(a1-2)Man(a1-2)Man(a1-3)]Man
# In short: as §1
# [21] = biological target: Man(a1-2)Man(a1-3)[Man(a1-2)Man(a1-6)]Man(a1-6)[Man(a1-2)Man(a1-2)Man(a1-3)]Man(b1-4)GlcNAc(b1-4)GlcNAc
# In short: as §1
# [22] = biological target: Man(a1-2)Man(a1-3)[Man(a1-6)]Man(a1-6)[Man(a1-2)Man(a1-3)]Man(b1-4)GlcNAc(b1-4)GlcNAc
# In short: as §1
# [23] = biological target: Man(a1-2)Man(a1-6)[Man(a1-3)]Man(a1-6)[Man(a1-2)Man(a1-2)Man(a1-3)]Man
# In short: as §1
# [24] = biological target: Man(a1-2)Man(a1-6)[Man(a1-3)]Man(a1-6)[Man(a1-2)Man(a1-2)Man(a1-3)]Man(b1-4)GlcNAc(b1-4)GlcNAc
# In short: as §1
# Man(a1-3)[Man(a1-6)]Man = biological target: Man(a1-3)[Man(a1-6)]Man
# In short: as §1
# [25] = biological target: Man(a1-3)[Man(a1-6)]Man(a1-6)[Man(a1-2)Man(a1-3)]Man(b1-4)GlcNAc(b1-4)GlcNAc
# In short: as §1
# [26] = biological target: Man(a1-3)[Man(a1-6)]Man(a1-6)[Man(a1-3)]Man
# In short: as §1
# [27] = biological target: Man(a1-3)[Man(a1-6)]Man(a1-6)[Man(a1-3)]Man(b1-4)GlcNAc(b1-4)GlcNAc
# In short: as §1
# [28] = biological target: Man(a1-3)[Man(a1-6)]Man(b1-4)GlcNAc(b1-4)GlcNAc
# In short: as §1
# Man(a1-6)Man = biological target: Man(a1-6)Man
# In short: as §1
# Man(b1-4)GlcNAc = biological target: Man(b1-4)GlcNAc
# In short: as §1
# Neu5Ac(a2-3)Gal = biological target: Neu5Ac(a2-3)Gal
# In short: as §1
# [29] = biological target: Neu5Ac(a2-3)Gal(b1-3)GalNAc
# In short: as §1
# [30] = biological target: Neu5Ac(a2-3)Gal(b1-3)GalNAc(b1-3)Gal(a1-4)Gal(b1-4)Glc
# In short: as §1
# [31] = biological target: Neu5Ac(a2-3)Gal(b1-3)GalNAc(b1-3)Gal(b1-4)GlcNAc
# In short: as §1
# [32] = biological target: Neu5Ac(a2-3)Gal(b1-3)GalNAc(b1-4)[Neu5Ac(a2-3)]Gal(b1-4)Glc
# In short: as §1
# [33] = biological target: Neu5Ac(a2-3)Gal(b1-3)GalNAc6S
# In short: as §1
# [34] = biological target: Neu5Ac(a2-3)Gal(b1-3)GlcNAc
# In short: as §1
# [35] = biological target: Neu5Ac(a2-3)Gal(b1-3)GlcNAc(b1-3)Gal(b1-3)GlcNAc
# In short: as §1
# [36] = biological target: Neu5Ac(a2-3)Gal(b1-3)GlcNAc6S
# In short: as §1
binder,measurement,setting,value
B1,glycan array binding signal (z-score),GalNAc(b1-3)GalNAc,-0.139
same,glycan array binding signal (z-score),GalNAc(b1-4)GlcNAc,-0.139
same,glycan array binding signal (z-score),Glc(a1-4)Glc,0.171
same,glycan array binding signal (z-score),Glc(a1-6)Glc(a1-6)Glc,0.257
same,glycan array binding signal (z-score),Glc(b1-4)Glc,-0.247
same,glycan array binding signal (z-score),Glc(b1-6)Glc,0.041
same,glycan array binding signal (z-score),GlcA(b1-3)Gal,-0.065
same,glycan array binding signal (z-score),GlcA(b1-3)GlcNAc,0.18
same,glycan array binding signal (z-score),GlcA(b1-6)Gal,-0.156
same,glycan array binding signal (z-score),[1],-0.263
same,glycan array binding signal (z-score),[2],-0.178
same,glycan array binding signal (z-score),[3],-0.227
same,glycan array binding signal (z-score),[4],-0.146
same,glycan array binding signal (z-score),GlcNAc(b1-3)Gal,-0.231
same,glycan array binding signal (z-score),[5],-0.229
same,glycan array binding signal (z-score),GlcNAc(b1-3)Gal(b1-4)Glc,-0.093
same,glycan array binding signal (z-score),[6],-0.192
same,glycan array binding signal (z-score),[7],-0.257
same,glycan array binding signal (z-score),GlcNAc(b1-3)GalNAc,-0.178
same,glycan array binding signal (z-score),GlcNAc(b1-3)Man,-0.12
same,glycan array binding signal (z-score),[8],-0.229
same,glycan array binding signal (z-score),[9],-0.181
same,glycan array binding signal (z-score),[10],-0.221
same,glycan array binding signal (z-score),[11],-0.144
same,glycan array binding signal (z-score),GlcNAc(b1-4)GlcNAc,-0.216
same,glycan array binding signal (z-score),[12],0.109
same,glycan array binding signal (z-score),[13],-0.139
same,glycan array binding signal (z-score),[14],-0.108
same,glycan array binding signal (z-score),[15],-0.173
same,glycan array binding signal (z-score),[16],-0.257
same,glycan array binding signal (z-score),GlcNAc(b1-6)GalNAc,-0.266
same,glycan array binding signal (z-score),GlcNAc3Prop(b1-4)GlcNAc,-0.115
same,glycan array binding signal (z-score),Kdn(a2-3)Gal(b1-3)GlcNAc,-0.141
same,glycan array binding signal (z-score),Kdn(a2-3)Gal(b1-4)GlcNAc,-0.181
same,glycan array binding signal (z-score),[17],0.128
same,glycan array binding signal (z-score),[18],4.11
same,glycan array binding signal (z-score),Man(a1-2)Man(a1-3)Man,-0.196
same,glycan array binding signal (z-score),[19],3
same,glycan array binding signal (z-score),[20],13.2
same,glycan array binding signal (z-score),[21],-0.124
same,glycan array binding signal (z-score),[22],2.01
same,glycan array binding signal (z-score),[23],4.18
same,glycan array binding signal (z-score),[24],8.4
same,glycan array binding signal (z-score),Man(a1-3)[Man(a1-6)]Man,-0.122
same,glycan array binding signal (z-score),[25],1.23
same,glycan array binding signal (z-score),[26],-0.175
same,glycan array binding signal (z-score),[27],-0.158
same,glycan array binding signal (z-score),[28],-0.231
same,glycan array binding signal (z-score),Man(a1-6)Man,-0.223
same,glycan array binding signal (z-score),Man(b1-4)GlcNAc,-0.204
same,glycan array binding signal (z-score),Neu5Ac(a2-3)Gal,-0.129
same,glycan array binding signal (z-score),[29],-0.162
same,glycan array binding signal (z-score),[30],-0.176
same,glycan array binding signal (z-score),[31],-0.198
same,glycan array binding signal (z-score),[32],0.15
same,glycan array binding signal (z-score),[33],0.035
same,glycan array binding signal (z-score),[34],-0.208
same,glycan array binding signal (z-score),[35],-0.118
same,glycan array binding signal (z-score),[36],0.022

# From the supplement of paper PMC8728848
